{"source": "PubChem BioAssay AID1963576", "about": "(National Center for Advancing Translational Sciences (NCATS), 2024)", "note": "Screen size: about 46,000 compounds; about 60 (0.1%) were called active. Another 3% or so got no clear call; they are omitted. Calls follow the shape of the dose curve; as a rule, active = well fitted inhibition curve with a large enough effect; inconclusive = small, poorly fitted or top-dose-only effect; inactive = no such curve, though single readings can be large or run the other way. The list shows a part of the results."}
{"assay": "Primary qHTS assay for Inhibitors of ovarian cancer metastasis using an organotypic tumor microenvironment (TME) model; also: nearly all actives have a fitted effect of over 65% in size;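 as to activity change, negative = inhibition: plate controls were DMSO wells for no effect and tomatine positive control wells for full effect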.", "conditions": "SKOV3ip1-GFP adhesion/invasion on 3D omental model, fluorescence; series mostly up to 45.8 µM; activity change, negative = inhibition: at the top concentration", "how_it_was_run": "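qHTS, 4-pt dose (0.36-46 umol/L); SKOV3ip1-GFP, 1,200 cells/well, no FBS; primary omental fibroblast/mesothelial co-culture 48 h pre-grown; 2 h RT + 16 h 37 C; PBS wash, 4% PFA; GFP count 488/509 nm.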"}
{"smiles": "CC(=O)c1cc(C(=O)Nc2cccc(C)c2)c2ccccn12", "outcome": "inactive"}
{"smiles": "Cc1ccc(C)c(N(C)C(=O)C2CCN(S(=O)(=O)c3cccc4nsnc34)CC2)c1", "outcome": "inactive"}
{"smiles": "COc1ccc(-c2nnn3c2nc(N2CCCC(C)C2)c2ccccc23)cc1", "note": "(configuration not stated)", "activity change, negative = inhibition": "inactive: -1.45%"}
{"smiles": "CCOC(=O)c1ccccc1NC(=O)CSc1nc2ncccc2[nH]1", "activity change, negative = inhibition": "inactive: 2.42%"}
{"smiles": "CCN1c2ccccc2-c2nc(SCC(=O)Nc3ccc(C)c(Cl)c3)ncc2S1(=O)=O", "activity change, negative = inhibition": "inactive: 2.63%"}
{"smiles": "Cc1ccc(S(=O)(=O)NCc2nc3nc(C)cc(C)n3n2)c(C)c1", "activity change, negative = inhibition": "inactive: 2.58%"}
{"smiles": "CCOC(=O)C1CCCN(S(=O)(=O)c2ccc3[nH]c(=O)ccc3c2)C1", "note": "(configuration not stated)", "outcome": "inactive"}
{"smiles": "CCOc1ccc(CNC(=O)c2ccc3nc(Cc4ccc(OC)cc4)oc3c2)cc1OC", "outcome": "inactive"}
{"smiles": "O=c1c2sc3ccccc3c2n(Cc2ccccc2)c(=O)n1Cc1ccccc1", "activity change, negative = inhibition": "inactive: 2.46%"}
{"smiles": "COc1ccc(N2CCN(CC(O)COc3ccc(C(C)(C)C)cc3)CC2)cc1", "note": "(configuration not stated)", "activity change, negative = inhibition": "inactive: -8.29%"}
{"smiles": "Cc1ccc(S(=O)(=O)c2[nH]c(-c3ccccc3)nc2SCC(=O)O)cc1", "activity change, negative = inhibition": "inactive: -3.95%"}
{"smiles": "CCOC(=O)c1ccc(NC(=O)CC2C(=O)N(c3ccccc3)C(=O)N2Cc2cccs2)cc1", "note": "(configuration not stated)", "activity change, negative = inhibition": "inactive: 15.9%"}
{"smiles": "Cc1ccc2c(CNCCc3ccc(Cl)cc3)c(C(=O)O)n(Cc3ccc(F)cc3)c2c1", "outcome": "inactive"}
{"smiles": "O=C1NC(=O)[C@@H](c2cn3c4c(cccc24)CCC3)[C@H]1c1c[nH]c2ccccc12", "activity change, negative = inhibition": "inactive: -20.4%"}
{"smiles": "CC(C)Cc1nn2c(=O)cc(COC(=O)c3ccc(NC(=O)c4cccs4)cc3)nc2s1", "outcome": "inactive"}
{"smiles": "Cc1ccc(Cl)cc1NC(=O)c1ccc(-c2nc(CSc3ccccc3)c(C)o2)cc1", "activity change, negative = inhibition": "inactive: 0.627%"}
{"smiles": "CCC(=O)N1c2ccccc2CC1C(=O)N1CCN(c2ccccc2)CC1", "note": "(configuration not stated)", "activity change, negative = inhibition": "inactive: -6.58%"}
{"smiles": "CCc1ccc(CN(C(=O)c2nc(SC)ncc2Cl)C2CCS(=O)(=O)C2)cc1", "note": "(configuration not stated)", "activity change, negative = inhibition": "inactive: -10.2%"}
{"smiles": "CCN(C(=O)Cc1c(C(=O)O)[nH]c2ccccc12)c1ccc(OC)cc1", "activity change, negative = inhibition": "inactive: 3.71%"}
{"smiles": "CCOC(=O)c1ccc(NC(=O)CCc2c(C)nc3c(c(C)nn3C)c2C)cc1", "activity change, negative = inhibition": "inactive: -4.66%"}
{"smiles": "CCOc1ccccc1NC(=O)Cn1c(=O)ccc2cc(S(=O)(=O)N3CCC(C)CC3)ccc21", "activity change, negative = inhibition": "inactive: -13%"}
{"smiles": "O=c1c2c3c(sc2nnn1Cc1ccc(Br)cc1)CCCC3", "activity change, negative = inhibition": "inactive: -0.42%"}
{"smiles": "O=S(=O)(NCCc1csc(-c2ccc(F)cc2)n1)c1ccc(Cl)cc1", "activity change, negative = inhibition": "inactive: 1.64%"}
{"smiles": "CC(=O)c1ccc(N2CCN(C(=O)C3CCN(S(=O)(=O)c4cccc5nonc45)CC3)CC2)cc1", "activity change, negative = inhibition": "inactive: 0.319%"}
{"smiles": "COc1ccc(-c2cnc(C)o2)cc1S(=O)(=O)Nc1ccc(C)c(F)c1", "outcome": "inactive"}
{"smiles": "O=C(CSc1nccn1Cc1ccc(Cl)cc1)NC1CCCC1", "activity change, negative = inhibition": "inactive: -15.5%"}
{"smiles": "Cc1ccc(CN2CCSc3ccc(C(=O)N4CCN(c5cccc(C)c5C)CC4)cc32)cc1", "activity change, negative = inhibition": "inactive: -2.86%"}
